{
  "source": "PubChem BioAssay AID588855",
  "about": "(National Center for Advancing Translational Sciences (NCATS), 2011)",
  "note": "Screen size: about 410,000 compounds; about 5,000 (1.2%) were called active. Inconclusive means that the source gave no clear call. Such entries were picked first, then a sample of the others. Calls follow the shape of the dose curve; as a rule, active = well fitted inhibition curve with a large enough effect; inconclusive = small, poorly fitted or top-dose-only effect; inactive = no such curve, though single readings can be large or run the other way. Potencies of inconclusive entries are doubtful fits and often do not repeat. Potency is read from the fitted curve at half-maximal effect; tags tell the direction and shape of the fitted curve.",
  "data": [
    {"assay": "qHTS for Inhibitors of TGF-b; also: nearly all actives have a fitted effect of over 65% in size", "settings": "HepG2 CAGA-GFP TGF-b/SMAD3 reporter, GFP fluorescence, 18 h, TGF-beta stimulated, 500 pg/mL final; series mostly up to 46.1 µM", "summary_of_the_method": "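Read-out: total well GFP (ex488/em500-530) summed from mean per-cell fluorescence. Cells: HEPG2 CAGA-GFP, 1% FBS DMEM, 18 h at 37 degrees C with 500 pg/mL final TGF-beta. Unstimulated wells served as the full-inhibition control; stimulated DMSO wells = 0%.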", "values": [
      {"smiles": "CCCCN1C(=O)NC(=O)C2(Cc3ccccc3N3CCOCC32)C1=O", "note": "(configuration not stated)", "Potency": "inconclusive: 35.5 µM [inhibitor, single point]"},
      {"smiles": "CC/C(=N\\Nc1ccccc1)c1c(O)n(C)c(=O)n(C)c1=O", "Potency": "inactive"},
      {"smiles": "CN(C)Cc1c[nH]c2ccccc12", "Potency": "inactive"},
      {"smiles": "O=C(COc1ccc2ccccc2c1)N1CCN(CC2CC3C=CC2C3)CC1", "note": "(configuration not stated)", "Potency": "inconclusive: 17.8 µM [inhibitor, single point]"},
      {"smiles": "COc1ccc(-c2nc(CN3C(=O)CN=C(c4ccccc4)c4ccccc43)c(C)o2)cc1", "Potency": "inconclusive: 31.6 µM [inhibitor, single point]"},
      {"smiles": "O=C(Cn1c(=O)n(CC2CCC(C(=O)NCCc3ccccc3)CC2)c(=O)c2ccccc21)Nc1cccc(F)c1", "note": "(configuration not stated)", "Potency": "inconclusive: 12.6 µM [inhibitor, single point]"},
      {"smiles": "Cc1cc(C)cc(N2C(=O)NC(=O)/C(=C\\c3cccn3-c3ccccc3)C2=O)c1", "Potency": "inconclusive: 10 µM [inhibitor, partial curve, poor fit]"},
      {"smiles": "COc1ccc(NC(=O)CN(C)C(=O)CSC(c2ccccc2)c2ccccc2)cc1", "Potency": "inconclusive: 35.5 µM [inhibitor, single point]"},
      {"smiles": "CCOP(=O)(OCC)C(NC(=O)c1cccc([N+](=O)[O-])c1)C(Cl)(Cl)Cl", "note": "(configuration not stated)", "Potency": "inactive"},
      {"smiles": "Cc1cccc(N2CCN(C(=O)CCCCn3c(=O)[nH]c4ccsc4c3=O)CC2)c1C", "Potency": "inconclusive: 12.6 µM [inhibitor, partial curve, poor fit]"},
      {"smiles": "COC(=O)C1=C(c2cc3ccccc3o2)C[C@@H]2CC[C@H]1N2C(=O)NCCO", "Potency": "inactive"},
      {"smiles": "CC1(C)NC(=S)C(C)(C)N1N=O", "Potency": "inactive"},
      {"smiles": "Cc1c(P(=S)(c2ccccc2)c2ccccc2)[n+]2ccccc2n1CCc1ccccc1", "Potency": "inconclusive: 20 µM [inhibitor, single point]"},
      {"smiles": "CCCCOC(=O)n1c(=O)oc2ccccc21", "Potency": "inconclusive: 2.51 µM [inhibitor, full curve, poor fit]"},
      {"smiles": "CCc1cc2c(cc1-c1csc(C/C(N)=N/O)n1)C(C)(C)CCC2(C)C", "Potency": "inconclusive: 35.5 µM [inhibitor, single point]"},
      {"smiles": "CC[C@@]1(O)C(=O)OCc2c1cc1n(c2=O)Cc2cc3c(N)cccc3nc2-1", "Potency": "active: 0.562 µM"},
      {"smiles": "CCCCCn1c(=O)c(C(=O)Nc2nc(CC(=O)OCC)cs2)c(O)c2ccccc21", "Potency": "inactive"},
      {"smiles": "O=C(c1ccccc1F)N1CCN(Cc2nc3sc4c(c3c(=O)[nH]2)CCCC4)CC1", "Potency": "inconclusive: 6.31 µM [inhibitor, single point]"},
      {"smiles": "CN1CC[C@@]2(C)c3cc(O)ccc3N(C)C12", "note": "(some centres not stated)", "Potency": "inconclusive: 15.8 µM [inhibitor, partial curve, poor fit]"},
      {"smiles": "Cc1cccc(C)c1-n1nnnc1C(c1ccnc2ccccc12)N1CCC2(CC1)C(=O)NCN2c1ccccc1", "note": "(configuration not stated)", "Potency": "inconclusive: 7.08 µM [inhibitor, partial curve, poor fit]"},
      {"smiles": "Cc1cc(NC(=O)COC(=O)c2c(C)nn(Cc3ccccc3Cl)c2C)no1", "Potency": "inconclusive: 35.5 µM [inhibitor, single point]"},
      {"smiles": "CCC1C(c2cc(OC)c(OC)c(OC)c2)c2cc3c(cc2OC1N1CCCC1)OCO3", "note": "(configuration not stated)", "Potency": "active: 10 µM"},
      {"smiles": "O=C(CN1CC=C(c2ccccc2)CC1)NC(=O)NC1CCCCC1", "Potency": "inactive"},
      {"smiles": "Cc1ccc(S(=O)(=O)N(CC(=O)NCCSc2ccc(Cl)cc2)c2ccccc2C)cc1", "Potency": "inconclusive: 20 µM [inhibitor, partial curve, poor fit]"},
      {"smiles": "Cc1cc(C)cc(NC(=O)Cn2cc(C(=O)c3cccs3)c3ccccc32)c1", "Potency": "inconclusive: 12.6 µM [inhibitor, single point]"},
      {"smiles": "CC(C)c1ccc(C2NCc3ccccc3-n3cccc32)cc1", "note": "(configuration not stated)", "Potency": "inconclusive: 35.5 µM [inhibitor, single point]"},
      {"smiles": "COc1cccc2c1C(=O)c1c(O)c3c(c(O)c1C2=O)C[C@@](O)(C(=O)CO)C[C@@H]3O[C@H]1C[C@H](N)[C@H](OC2CCCCO2)[C@H](C)O1", "note": "(some centres not stated)", "Potency": "inconclusive: 25.1 µM [inhibitor, single point]"},
      {"smiles": "COc1ccc(OC(=O)N(C)C[C@@H]2OCc3ccccc3-c3c(n(C)c4ccccc34)C(=O)N([C@H](C)CO)C[C@@H]2C)cc1", "Potency": "inconclusive: 3.55 µM [inhibitor, full curve, poor fit]"},
      {"smiles": "CCCCCCC(=O)c1c(O)n(-c2ccccc2OC)c(=O)[nH]c1=O", "note": "(tested in a mixture with another compound)", "Potency": "inactive"},
      {"smiles": "Cc1cccc(CN2CCN(c3ccc(Cl)cc3)CC2)c1", "Potency": "inconclusive: 17.8 µM [inhibitor, partial curve]"},
      {"smiles": "CN(C)c1ccc(P(=O)(Nc2ccc([N+](=O)[O-])cc2)N2CCOCC2)c(NC(=O)c2cccs2)c1", "note": "(configuration not stated)", "Potency": "inconclusive: 2.51 µM [inhibitor, full curve]"},
      {"smiles": "O=C1NC(=O)N(c2ccc(Cl)cc2)C(=O)/C1=C/c1coc2ccc(O)cc2c1=O", "Potency": "inconclusive: 5.01 µM [inhibitor, partial curve, poor fit]"},
      {"smiles": "C=C1C(=O)O[C@@H]2C[C@@H](C)[C@H]3C=CC(=O)[C@]3(O)C[C@@H]12", "Potency": "active: 12.6 µM"},
      {"smiles": "COc1ccc(C(=O)NCCn2cc(SCc3ccc(C(F)(F)F)cc3)c3ccccc32)cc1OC", "Potency": "active: 7.08 µM"},
      {"smiles": "COc1ccc(OC(=O)N2C/C(=C/c3ccccc3)C(=O)/C(=C\\c3ccccc3)C2)cc1", "Potency": "inconclusive: 7.08 µM [inhibitor, partial curve, poor fit]"},
      {"smiles": "O=[N+]([O-])c1cc(C(F)(F)F)c(Cl)c([N+](=O)[O-])c1Nc1ncc(C(F)(F)F)cc1Cl", "Potency": "active: 1.78 µM"},
      {"smiles": "c1ccc2c(c1)[I+]c1ccccc1-2", "Potency": "inconclusive: 4.47 µM [inhibitor, partial curve, poor fit]"},
      {"smiles": "CC1(C)c2[nH]c3ccccc3c2C[C@H]2C(=O)N(Cc3ccccc3F)C(=O)N21", "Potency": "inconclusive: 25.1 µM [inhibitor, single point]"},
      {"smiles": "CN(C)CC/C=C1\\c2ccccc2Sc2ccc(Cl)cc21", "Potency": "inconclusive: 25.1 µM [inhibitor, single point]"},
      {"smiles": "COc1ccc(-c2[nH]ncc2CNC(C)Cc2ccsc2)c(F)c1", "note": "(configuration not stated)", "Potency": "inconclusive: 35.5 µM [inhibitor, single point]"},
      {"smiles": "O=[N+]([O-])c1ccc(N2CCOCC2)c2c1no[n+]2[O-]", "Potency": "active: 3.16 µM"},
      {"smiles": "O=C1NCCOC(=O)[C@H](Cc2ccc(F)cc2)CC/C=C/C[C@@H]1CC(=O)N(CCO)Cc1ccccc1", "Potency": "inconclusive: 14.1 µM [inhibitor, partial curve, poor fit]"},
      {"smiles": "COc1cc(OC)c(NS(=O)(=O)c2cc(-c3cnc(C4CC4)o3)ccc2C)cc1Cl", "Potency": "inconclusive: 35.5 µM [inhibitor, single point]"},
      {"smiles": "CNc1ccc2oc(C[C@H]3O[C@@]4(CC[C@H]3C)O[C@H]([C@H](C)C(=O)c3ccc[nH]3)[C@H](C)C[C@H]4C)nc2c1C(=O)O", "Potency": "active: 5.01 µM"},
      {"smiles": "CCOc1ccc(C(=O)N2CCC(c3noc(-c4ccc(S(=O)(=O)N5CCCC5)cc4)n3)CC2)cc1", "Potency": "inconclusive: 7.08 µM [inhibitor, partial curve, poor fit]"},
      {"smiles": "CCOC(=O)Cc1csc(NC(=O)c2c(O)c3ccccc3n(CCC(C)C)c2=O)n1", "Potency": "inactive"},
      {"smiles": "Cc1ccc(-c2nc(CS(=O)CC(=O)NC3CCCC(C)C3C)c(C)o2)cc1", "note": "(configuration not stated)", "Potency": "inconclusive: 35.5 µM [inhibitor, partial curve, poor fit]"},
      {"smiles": "Cc1ccc(C[n+]2c(-c3ccc(C)cc3)cc(-c3ccc(C)cc3)cc2-c2ccc(C)cc2)cc1", "Potency": "inconclusive: 7.08 µM [inhibitor, partial curve, poor fit]"},
      {"smiles": "CCC(=O)c1c(O)n(C2CCCCCC2)c(=O)[nH]c1=O", "Potency": "inactive"},
      {"smiles": "COc1ccc(CN2Cc3cc(N4CCCCC4)ccc3-n3nncc3C2)cc1", "Potency": "inconclusive: 12.6 µM [inhibitor, partial curve, poor fit]"},
      {"smiles": "COc1ccc(OCC(=O)N2CCN(Cc3ccc(SC)cc3)CC2)cc1", "Potency": "inconclusive: 0.282 µM [inhibitor, full curve]"},
      {"smiles": "CCCCC1(CCCC)C(=O)NC(=Nc2cccc(C)c2)NC1=O", "Potency": "inconclusive: 35.5 µM [inhibitor, single point]"},
      {"smiles": "O=C1NCN(c2ccccc2)C12CCN(C(c1ccnc3ccccc13)c1nnnn1Cc1ccccc1)CC2", "note": "(configuration not stated)", "Potency": "inconclusive: 28.2 µM [inhibitor, single point]"},
      {"smiles": "CCCC(C)CC1(CCO)C(=O)NC(=S)NC1=O", "note": "(configuration not stated)", "Potency": "inactive"},
      {"smiles": "COC(=O)[C@]12OC[C@]34C([C@@H](O)[C@@H]1O)[C@]1(C)CC(=O)C(O)=C(C)[C@@H]1C[C@H]3OC(=O)[C@H](O)[C@@H]24", "note": "(some centres not stated)", "Potency": "inconclusive: 17.8 µM [inhibitor, single point]"},
      {"smiles": "Cc1ccc(C)c(N2CCN(c3ncnc4onc(C)c34)CC2)c1", "Potency": "inconclusive: 11.2 µM [inhibitor, partial curve, poor fit]"},
      {"smiles": "C/C(=N/O)c1ccc2ccc3ccccc3c2c1", "Potency": "inconclusive: 35.5 µM [inhibitor, single point]"},
      {"smiles": "CCCNc1nc(-c2cc(C(=O)Nc3ccccc3)on2)cc(C(C)C)n1", "Potency": "inconclusive: 35.5 µM [inhibitor, single point]"},
      {"smiles": "COc1cccc(Nc2nc(C(N)Cc3ccc(F)cc3)cs2)n1", "note": "(configuration not stated)", "Potency": "inconclusive: 35.5 µM [inhibitor, single point]"},
      {"smiles": "COC(=O)C1=C(c2ccc(-c3ccccc3)c(F)c2)C[C@@H]2CC[C@H]1N2C(=O)N1CCc2cc(OC)c(OC)cc2C1", "Potency": "inactive"},
      {"smiles": "CC1(C)N(O)C2CCCCC2N1O", "note": "(configuration not stated)", "Potency": "inactive"},
      {"smiles": "COc1ccc(CN2CCc3nc(N4CCN(c5ccc(F)cc5)CC4)ncc3C2)c(OC)c1OC", "Potency": "inconclusive: 3.55 µM [inhibitor, partial curve, poor fit]"}
    ]}
  ]
}
